The source of these data is the supplement of paper PMC4604168 (melanoma cell lines).

This is one part of the list. Single values are uncertain, as repeats are few or missing.

Among the test systems are WM115; WM1716; WM1745; WM3526; WM3619; WM451Lu.
Holding throughout (test): cell count relative to DMSO control; melanoma cells; higher = more viable cells
Holding throughout (settings): library dose: low library concentration; 72 h
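Note: cell number obtained by counting DAPI-stained nuclei in high-throughput microscope images with image analysis software, screen run in 1,536-well plates.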

On to `CC(=O)O[C@@]12CO[C@@H]1C[C@H](O)[C@@]1(C)C(=O)[C@H](O)C3=C(C)[C@@H](OC(=O)[C@H](O)[C@@H](NC(=O)OC(C)(C)C)c4ccccc4)C[C@@](O)([C@@H](OC(=O)c4ccccc4)[C@H]21)C3(C)C` [Docetaxel] + N.N.[Cl][Pt][Cl] [cisplatin] (first compound 0.0001 µM, partner dose 1.6 µM), for which the cell count is 58.2% in the experiment with WM115; 45.8% in the experiment with WM1716; 61.8% with WM1745; 45.4% in the experiment on WM3526; 81.6% in the experiment with WM3619; 68.6% in the experiment on WM451Lu.
As to `Nc1nc(F)nc2c1ncn2[C@@H]1O[C@H](CO)[C@@H](O)[C@@H]1O` [fludarabine] + C/C(O)=C(\C#N)C(=O)Nc1cc(Br)ccc1Br [LFM-A13] (first compound 0.2 µM, partner dose 2 µM), the cell count in the experiment on WM115 turned out to be 101%; with WM1716 it was 109%; with WM1745 it was 107%; in the experiment on WM3526, 28.5%; with WM3619, 128%; in the experiment on WM451Lu it was 40.3%.
In the case of `O=C(/C=C/c1cccnc1)NCCCCC1CCN(C(=O)c2ccccc2)CC1` + Cc1cc(SCc2sc(-c3ccc(C(F)(F)F)c(F)c3)nc2C)ccc1OCC(=O)O [GW0742] (first compound 0.01 µM, partner dose 2 µM), the cell count with WM115 was 88%; in the experiment on WM1716, 95.1%; with WM1745 it was 93.9%; in the experiment on WM3526, 110%; with WM3619, 91.5%; with WM451Lu, 104%.
Turning to `Cn1sc(=O)n(Cc2ccccc2)c1=O` + O=C(Oc1ccc([N+](=O)[O-])cc1)N1CCC(C(O)(c2ccc3c(c2)OCO3)c2ccc3c(c2)OCO3)CC1 [JZL184] (first compound 0.4 µM, partner dose 1 µM), the cell count with WM115 is 94.6%; in the experiment with WM1716, 77.9%; with WM1745, 114%; in the experiment on WM3526, 91.7%; in the experiment on WM3619, 95%; in the experiment with WM451Lu, 89.3%.
In the case of `CCCCCCCCc1ccc(CCC(N)(CO)CO)cc1` [fingolimod] + Cc1cc(SCc2sc(-c3ccc(C(F)(F)F)c(F)c3)nc2C)ccc1OCC(=O)O [GW0742] (first compound 2 µM, partner dose 2 µM), the cell count amounted to 90.8% in the experiment with WM115; 79.7% in the experiment with WM1716; 70.3% in the experiment on WM1745; 103% in the experiment with WM3526; 75.9% in the experiment with WM3619; 81.5% with WM451Lu.
On to `O=C(O)c1ccc(-c2c[nH]c3ncc(-c4ccccc4)cc23)cc1C1CCCC1` + Cc1cc(SCc2sc(-c3ccc(C(F)(F)F)c(F)c3)nc2C)ccc1OCC(=O)O [GW0742] (first compound 0.16 µM, partner dose 2 µM), for which the cell count in the experiment with WM115 amounted to 97.1%; with WM1716 it was 120%; in the experiment on WM1745, 94.6%; with WM3526 it was 112%; with WM3619, 98.2%; in the experiment on WM451Lu, 103%.
Regarding `N#CC[C@H](C1CCCC1)n1cc(-c2ncnc3[nH]ccc23)cn1` [ruxolitinib] + C[As](C)SC[C@H](NC(=O)CC[C@H](N)C(=O)O)C(=O)NCC(=O)O [Darinaparsin] (first compound 1 µM, partner dose 0.4 µM), the cell count with WM115 came to 105%; in the experiment with WM1716, 105%; with WM1745, 99.8%; in the experiment on WM3526, 97%; with WM3619, 91.7%; in the experiment with WM451Lu, 87.1%.
On to `CC(=O)c1c(C)c2cnc(Nc3ccc(N4CCNCC4)cn3)nc2n(C2CCCC2)c1=O` [palbociclib] + C/C(O)=C(\C#N)C(=O)Nc1cc(Br)ccc1Br [LFM-A13] (first compound 0.04 µM, partner dose 2 µM), for which the cell count in the experiment with WM115 turned out to be 69.2%; in the experiment on WM1716, 53.1%; in the experiment on WM1745, 86.5%; in the experiment on WM3526, 62.5%; in the experiment with WM3619, 70.2%; in the experiment on WM451Lu, 65.9%.
For `Cn1c(=O)n(-c2ccc(C(C)(C)C#N)cc2)c2c3cc(-c4cnc5ccccc5c4)ccc3ncc21` + O=C(Oc1ccc([N+](=O)[O-])cc1)N1CCC(C(O)(c2ccc3c(c2)OCO3)c2ccc3c(c2)OCO3)CC1 [JZL184] (first compound 0.004 µM, partner dose 1 µM), the cell count came to 92.1% in the experiment with WM115; 87.2% in the experiment on WM1716; 92.9% in the experiment on WM1745; 85.4% with WM3526; 110% in the experiment on WM3619; 95.8% in the experiment on WM451Lu.
Turning to `O=C(O)c1ccc(-c2c[nH]c3ncc(-c4ccccc4)cc23)cc1C1CCCC1` + O=C(Oc1ccc([N+](=O)[O-])cc1)N1CCC(C(O)(c2ccc3c(c2)OCO3)c2ccc3c(c2)OCO3)CC1 [JZL184] (first compound 0.16 µM, partner dose 1 µM), the cell count was 105% in the experiment with WM115; 91.6% in the experiment on WM1716; 96.5% with WM1745; 102% with WM3526; 105% in the experiment with WM3619; 108% in the experiment on WM451Lu.
Regarding `C[C@@H](Oc1cc(-c2cnn(C3CCNCC3)c2)cnc1N)c1c(Cl)ccc(F)c1Cl` [Crizotinib] + C[As](C)SC[C@H](NC(=O)CC[C@H](N)C(=O)O)C(=O)NCC(=O)O [Darinaparsin] (first compound 0.2 µM, partner dose 0.4 µM), the cell count worked out at 99.8% in the experiment on WM115; 110% in the experiment with WM1716; 108% in the experiment on WM1745; 88.4% with WM3526; 109% in the experiment with WM3619; 86.4% in the experiment with WM451Lu.
With `Cc1cc(SCc2sc(-c3ccc(C(F)(F)F)c(F)c3)nc2C)ccc1OCC(=O)O` + Oc1nc(-c2ccc(C(F)(F)F)cc2)nc2c1CSCC2 [XAV939] (first compound 2 µM, partner dose 2 µM), the cell count came out at 85.4% with WM115; 73.8% in the experiment on WM1716; 88.3% in the experiment on WM1745; 101% in the experiment with WM3526; 92.9% in the experiment on WM3619; 99.3% in the experiment on WM451Lu.
For the compound `CN(c1ncccc1CNc1nc(Nc2ccc3c(c2)CC(=O)N3)ncc1C(F)(F)F)S(C)(=O)=O` + Cc1cc(SCc2sc(-c3ccc(C(F)(F)F)c(F)c3)nc2C)ccc1OCC(=O)O [GW0742] (first compound 0.08 µM, partner dose 2 µM), the cell count was found to be 83.5% with WM115; 96.8% with WM1716; 86.9% with WM1745; 106% with WM3526; 98.4% in the experiment with WM3619; 94.2% with WM451Lu.
For `CN(NC(=O)CC(=O)NN(C)C(=S)c1ccccc1)C(=S)c1ccccc1` + Cc1cc(SCc2sc(-c3ccc(C(F)(F)F)c(F)c3)nc2C)ccc1OCC(=O)O [GW0742] (first compound 0.006 µM, partner dose 2 µM), the cell count in the experiment with WM115 was 98.3%; in the experiment on WM1716, 90.7%; in the experiment on WM1745, 87.4%; in the experiment with WM3526, 98.8%; in the experiment on WM3619, 112%; in the experiment on WM451Lu, 123%.
As to `CN(C)S(=O)(=O)c1ccc2c(c1)/C(=C/c1cc3c([nH]1)CCCC3)C(=O)N2` + C/C(O)=C(\C#N)C(=O)Nc1cc(Br)ccc1Br [LFM-A13] (first compound 0.4 µM, partner dose 2 µM), the cell count was determined as 72.7% with WM115; 111% with WM1716; 73.1% with WM1745; 90.3% in the experiment on WM3526; 94.5% with WM3619; 111% in the experiment with WM451Lu.
On to `Cc1cc(SCc2sc(-c3ccc(C(F)(F)F)c(F)c3)nc2C)ccc1OCC(=O)O` + COc1cc2ncnc(Nc3ccc(Oc4ccccc4)cc3)c2cc1OC [SrcI1] (first compound 2 µM, partner dose 2 µM), for which the cell count in the experiment on WM115 was 99.7%; in the experiment with WM1716, 122%; in the experiment with WM1745, 85.1%; in the experiment on WM3526, 137%; with WM3619, 96.1%; in the experiment on WM451Lu, 98.3%.
For `C/C(O)=C(\C#N)C(=O)Nc1cc(Br)ccc1Br` + COc1cc(N2CCC(N3CCN(C)CC3)CC2)ccc1Nc1ncc(Cl)c(Nc2ccccc2S(=O)(=O)C(C)C)n1 [NVP-TAE684] (first compound 2 µM, partner dose 0.08 µM), the cell count with WM115 worked out at 90.7%; with WM1716 it was 101%; in the experiment with WM1745, 84.2%; in the experiment on WM3526 it was 85.2%; in the experiment with WM3619, 91.6%; in the experiment on WM451Lu, 108%.
Turning to `CS(=O)(=O)CCNCc1ccc(-c2ccc3ncnc(Nc4ccc(OCc5cccc(F)c5)c(Cl)c4)c3c2)o1` [lapatinib] + O=C(Oc1ccc([N+](=O)[O-])cc1)N1CCC(C(O)(c2ccc3c(c2)OCO3)c2ccc3c(c2)OCO3)CC1 [JZL184] (first compound 0.8 µM, partner dose 1 µM), the cell count in the experiment on WM115 was 108%; with WM1716, 98.8%; in the experiment on WM1745, 91%; with WM3526, 106%; in the experiment with WM3619, 86.1%; in the experiment on WM451Lu, 113%.
Regarding `CN(c1ncccc1CNc1nc(Nc2ccc3c(c2)CC(=O)N3)ncc1C(F)(F)F)S(C)(=O)=O` + C[As](C)SC[C@H](NC(=O)CC[C@H](N)C(=O)O)C(=O)NCC(=O)O [Darinaparsin] (first compound 0.08 µM, partner dose 0.4 µM), the cell count was 85.6% in the experiment with WM115; 88% in the experiment with WM1716; 86.5% in the experiment with WM1745; 87.6% with WM3526; 96.8% in the experiment on WM3619; 89.7% with WM451Lu.
As to `C[C@]1(c2nc3c(C(N)=O)cccc3[nH]2)CCCN1` [Veliparib] + Cc1cc(SCc2sc(-c3ccc(C(F)(F)F)c(F)c3)nc2C)ccc1OCC(=O)O [GW0742] (first compound 1.4 µM, partner dose 2 µM), the cell count in the experiment with WM115 turned out to be 92.4%; with WM1716, 89.1%; in the experiment on WM1745 it was 98.2%; in the experiment on WM3526, 93.8%; in the experiment with WM3619, 114%; in the experiment on WM451Lu it was 102%.
Consider `C[C@@H](N)c1ccc(C(=O)Nc2ccnc3[nH]ccc23)cc1` + Cc1cc(SCc2sc(-c3ccc(C(F)(F)F)c(F)c3)nc2C)ccc1OCC(=O)O [GW0742] (first compound 0.4 µM, partner dose 2 µM), for which the cell count stood at 102% in the experiment with WM115; 58.3% in the experiment on WM1716; 91.7% in the experiment on WM1745; 102% in the experiment with WM3526; 98.1% with WM3619; 91.1% in the experiment on WM451Lu.
`COc1ccc(-c2ccc3c(N4CCOCC4)nc(N4C[C@@H](C)O[C@@H](C)C4)nc3n2)cc1CO` + C/C(O)=C(\C#N)C(=O)Nc1cc(Br)ccc1Br [LFM-A13] (first compound 0.02 µM, partner dose 2 µM): the cell count in the experiment on WM115 stood at 88.5%; in the experiment with WM1716, 95.5%; with WM1745, 88%; with WM3526, 80.6%; in the experiment with WM3619 it was 101%; in the experiment on WM451Lu, 95.5%.
In the case of `Nc1ncn([C@H]2C[C@H](O)[C@@H](CO)O2)c(=O)n1` [decitabine] + C/C(O)=C(\C#N)C(=O)Nc1cc(Br)ccc1Br [LFM-A13] (first compound 0.1 µM, partner dose 2 µM), the cell count worked out at 82.8% in the experiment with WM115; 85.5% with WM1716; 97.7% with WM1745; 78.4% in the experiment on WM3526; 87.1% in the experiment with WM3619; 100% in the experiment on WM451Lu.
